Assay results reported in PubChem BioAssay (Tox21).
Inconclusive results, whose numbers are uncertain, are shown with a selection of clear calls. For some of these results: Potencies beside an inconclusive call are fits to weak or partial responses and may not hold up. Active and inactive are the calls of the source. Unless noted, calls follow the shape of the dose curve; as a rule, active = well fitted curve in the direction sought with a large enough effect in the repeat runs; inconclusive = weak or mixed curves; inactive = no such curve, though single readings can be large; an effect the other way counts as inactive or inconclusive.

What was measured:
[1] = qHTS assay for small molecule agonists of the p53 signaling pathway (AID 651631; calls by dose curve; also: potency is read from the fitted curve at half-maximal effect; nearly all actives have a fitted effect of over 15% in size); conditions: HCT-116 p53RE-bla reporter, beta-lactamase FRET ratio, 16 h; activation: at 73.3 µM (top of the series) unless noted
Summary of the method: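 HCT-116 cells carrying a beta-lactamase reporter under p53 response elements were dosed with compound for 16 h at 37 °C. LiveBLAzer B/G FRET substrate was then added for 2 h at room temperature, and fluorescence intensity was read to detect pathway agonism.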

[2] = qHTS assay for small molecules that induce genotoxicity in human embryonic kidney cells expressing luciferase-tagged ATAD5 (AID 651632); also: potency is read from the fitted curve at half-maximal effect; nearly all actives have a fitted effect of over 15% in size
Summary of the method: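 DMSO vehicle served as the control. HEK293T reporter cells, 16 hr at 37C, then 30 min Amplite at room temperature; ATAD5 induction is measured as luciferase activity.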

[3] = qHTS assay for small molecules that induce genotoxicity in human embryonic kidney cells expressing luciferase-tagged ATAD5 - cell viability (AID 651634; calls by dose curve; also: potency is read from the fitted curve at half-maximal effect; nearly all actives have a fitted effect of over 25% in size)
Summary of the method: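 Here HEK293T cells with the ATAD5 luciferase reporter are incubated with test compounds for 15.5 hr, and cytotoxicity is then gauged by measuring protease activity in live cells using fluorescence.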

[4] = qHTS assay to test for compound auto fluorescence at 460 nm (blue) in HEK293 cells (AID 720678); also: potency is read from the fitted curve at half-maximal effect
Summary of the method: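 Intrinsic compound fluorescence is recorded in live HEK293 cultures after overnight incubation at 37C, 5% CO2, using excitation 405 nm and emission 460 nm. Values are referenced to triamterene.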

[5] = qHTS assay to test for compound auto fluorescence at 460 nm (blue) in HEK293 cell free culture (AID 720681); also: potency is read from the fitted curve at half-maximal effect
Summary of the method: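 Blue fluorescence (Ex 405/Em 460 nm, triamterene-equivalent) was read immediately after pin transfer of compound or DMSO into medium (DMEM, 10% FBS) without cells.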

[6] = target: Glucocorticoid receptor (Homo sapiens) (UniProt P04150); assay: qHTS assay to identify small molecule agonists of the glucocorticoid receptor (GR) signaling pathway (AID 720691; active = well fitted activation curve with a large enough effect in the signal ratio in the repeat runs, not every such curve was filed as active; inconclusive = weak or mixed curves, or effect the other way; inactive = no such curve, though single readings can be large or run the other way; the % refers to the signal ratio; also: potency is read from the fitted curve at half-maximal effect); conditions: GR-bla HeLa, beta-lactamase reporter ratio, 18 h; activation: at 62.4 µM (top of the series) unless noted
UniProt P04150, sequence (P04150 whole entry, looked up): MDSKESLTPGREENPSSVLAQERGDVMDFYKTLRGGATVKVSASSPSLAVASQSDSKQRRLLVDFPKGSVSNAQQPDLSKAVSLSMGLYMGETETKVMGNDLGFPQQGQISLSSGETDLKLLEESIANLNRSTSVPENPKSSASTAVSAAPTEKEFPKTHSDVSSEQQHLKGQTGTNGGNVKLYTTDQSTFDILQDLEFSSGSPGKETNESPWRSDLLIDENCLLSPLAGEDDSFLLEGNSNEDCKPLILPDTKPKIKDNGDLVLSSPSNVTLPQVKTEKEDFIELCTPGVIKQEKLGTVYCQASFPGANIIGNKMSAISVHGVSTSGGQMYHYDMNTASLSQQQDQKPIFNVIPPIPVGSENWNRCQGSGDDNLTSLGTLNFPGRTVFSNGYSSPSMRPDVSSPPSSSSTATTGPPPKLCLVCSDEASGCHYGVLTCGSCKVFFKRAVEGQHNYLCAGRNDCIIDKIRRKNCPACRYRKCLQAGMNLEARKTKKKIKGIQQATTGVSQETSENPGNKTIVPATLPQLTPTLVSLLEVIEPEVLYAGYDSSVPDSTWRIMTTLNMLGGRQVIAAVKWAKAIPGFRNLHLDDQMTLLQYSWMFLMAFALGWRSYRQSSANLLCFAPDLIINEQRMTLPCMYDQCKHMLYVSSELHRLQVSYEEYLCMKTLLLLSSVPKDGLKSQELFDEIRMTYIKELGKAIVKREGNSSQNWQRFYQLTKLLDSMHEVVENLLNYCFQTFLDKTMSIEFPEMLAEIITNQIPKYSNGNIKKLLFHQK
Summary of the method: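 Compounds in DMSO, alongside positive controls, were added to GR-bla HeLa reporter cells and incubated 18 h at 37 C; GRE-driven beta-lactamase was detected by fluorescence after 2 h with FRET substrate at room temperature.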

[7] = target: Glucocorticoid receptor (Homo sapiens) (UniProt P04150); assay: qHTS assay to identify small molecule antagonists of the glucocorticoid receptor (GR) signaling pathway (AID 720692; active = well fitted inhibition curve with a large enough effect in the signal ratio in the repeat runs, not every such curve was filed as active; inconclusive = weak or mixed curves, or effect the other way; inactive = no such curve, though single readings can be large or run the other way; the % refers to the signal ratio; also: potency is read from the fitted curve at half-maximal effect); conditions: GR-bla HeLa, beta-lactamase FRET ratio, dexamethasone-stimulated, 18 h; activity change, negative = inhibition: at 58.5 µM (top of the series) unless noted
Summary of the method: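 In a 1536-well cell format, compounds were added 4 h after seeding GR-bla HeLa cells, together with dexamethasone at 5 nM final; reporter activity was measured by FRET-substrate fluorescence following 18 h at 37 C.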

[8] = qHTS assay to identify small molecule antagonists of the glucocorticoid receptor (GR) signaling pathway - cell viability counter screen (AID 720693); conditions: GR-bla HeLa viability, CellTiter-Glo luminescence, 18 h, with 5 nM dexamethasone present; viability change, negative = cytotoxic: at 58.5 µM (top of the series); also: potency is read from the fitted curve at half-maximal effect; nearly all actives have a fitted effect of over 55% in size
[9] = qHTS assay to identify small molecule antagonists of the androgen receptor (AR) signaling pathway - cell viability counter screen (AID 743033; also: potency is read from the fitted curve at half-maximal effect; nearly all actives have a fitted effect of over 45% in size); conditions: AR-bla HEK293 viability, CellTiter-Glo luminescence, 16 h; activity change, negative = cytotoxicity: at 58.5 µM (top of the series) unless noted
[10] = target: Androgen receptor (Homo sapiens) (UniProt P10275); assay: qHTS assay to identify small molecule antagonists of the androgen receptor (AR) signaling pathway (AID 743035; active = well fitted inhibition curve with a large enough effect in the signal ratio in the repeat runs, not every such curve was filed as active; inconclusive = weak or mixed curves, or effect the other way; inactive = no such curve, though single readings can be large or run the other way; the % refers to the signal ratio; also: potency is read from the fitted curve at half-maximal effect); conditions: HEK293 AR-UAS-bla, R1881-stimulated, beta-lactamase FRET, 16 h; activity change, negative = inhibition: at 58.5 µM (top of the series) unless noted
UniProt P10275, sequence (P10275 whole entry, looked up): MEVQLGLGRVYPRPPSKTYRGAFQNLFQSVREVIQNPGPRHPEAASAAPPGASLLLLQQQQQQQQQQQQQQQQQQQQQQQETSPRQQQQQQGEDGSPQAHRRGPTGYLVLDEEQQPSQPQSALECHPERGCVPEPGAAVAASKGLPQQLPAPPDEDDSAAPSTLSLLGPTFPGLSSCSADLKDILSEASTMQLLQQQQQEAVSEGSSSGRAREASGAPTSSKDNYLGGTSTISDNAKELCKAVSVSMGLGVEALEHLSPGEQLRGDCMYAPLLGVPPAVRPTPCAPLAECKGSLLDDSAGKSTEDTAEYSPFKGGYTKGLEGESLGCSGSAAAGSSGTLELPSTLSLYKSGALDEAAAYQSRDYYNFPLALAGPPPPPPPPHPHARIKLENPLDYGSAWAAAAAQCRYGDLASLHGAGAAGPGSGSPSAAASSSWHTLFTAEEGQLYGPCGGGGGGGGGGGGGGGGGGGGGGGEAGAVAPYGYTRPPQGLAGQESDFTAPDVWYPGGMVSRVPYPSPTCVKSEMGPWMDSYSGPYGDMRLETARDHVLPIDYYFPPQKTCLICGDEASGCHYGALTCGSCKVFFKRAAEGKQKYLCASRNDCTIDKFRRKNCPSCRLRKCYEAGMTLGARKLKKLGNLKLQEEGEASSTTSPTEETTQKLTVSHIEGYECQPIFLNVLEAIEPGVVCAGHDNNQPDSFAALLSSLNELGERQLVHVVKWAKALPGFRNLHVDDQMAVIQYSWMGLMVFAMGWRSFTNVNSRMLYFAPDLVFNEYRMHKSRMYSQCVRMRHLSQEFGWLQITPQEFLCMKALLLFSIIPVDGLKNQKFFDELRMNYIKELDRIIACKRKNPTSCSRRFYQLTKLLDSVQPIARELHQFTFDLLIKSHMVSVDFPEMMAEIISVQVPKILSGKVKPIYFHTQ
Summary of the method: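 Reporter HEK293 cells were exposed to compounds and R1881 overnight (16 h, 37C); beta-lactamase activity was then quantified by FRET fluorescence.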

[11] = target: Androgen receptor (Homo sapiens) (UniProt P10275); assay: qHTS assay to identify small molecule antagonists of the androgen receptor (AR) signaling pathway using the MDA cell line (AID 743042; also: potency is read from the fitted curve at half-maximal effect; nearly all actives have a fitted effect of over 55% in size)
Summary of the method: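 Antagonist mode: compounds plus R1881 agonist added to MDA-kb2 AR-luc cells, incubated 16 h at 37C. Luciferase reporter luminescence quantified, with multiplexed CellTiter-Fluor readout for cell viability.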

[12] = qHTS assay to identify small molecule antagonists of the thyroid receptor (TR) signaling pathway - cell viability counter screen (AID 743064); conditions: GH3.TRE-Luc viability, CellTiter-Fluor, 24 h; activity change, negative = cytotoxic: at 70.3 µM (top of the series) unless noted; also: potency is read from the fitted curve at half-maximal effect; nearly all actives have a fitted effect of over 50% in size
Summary of the method: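 GH3.TRE-Luc rat pituitary cells dosed after 4 hr plating, co-stimulated with T3 at 1 nM final, incubated 23.5 h at 37 C. Viability measured in the same wells by CellTiter-Fluor fluorescence after 30 min further at 37 C.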

[13] = test system: thyroid hormone receptor (rat, GH3 cells); assay: qHTS assay to identify small molecule agonists of the thyroid receptor (TR) signaling pathway (AID 743066; calls by dose curve; also: % is scaled to controls: 0 for no effect and ±100 for the full control effect); conditions: GH3.TRE-Luc cells, TR agonist luciferase, 24 h; activation: at 83.9 µM (top of the series) unless noted
[14] = qHTS assay to identify small molecule antagonists of the estrogen receptor alpha (ER-alpha) signaling pathway using the BG1 cell line - cell viability counter screen (AID 743081); conditions: BG1Luc4E2 viability, CellTiter-Fluor, 22 h; activity change, negative = cytotoxicity: at 70.3 µM (top of the series) unless noted;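 also: compound given together with 17beta-estradiol as the ER stimulus; potency is read from the fitted curve at half-maximal effect; nearly all actives have a fitted effect of over 45% in size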
[15] = qHTS assay to identify aromatase inhibitors - cell viability counter screen (AID 743084); conditions: MCF-7 aro ERE viability, CellTiter-Fluor, 24 h; activity change, negative = cytotoxicity: at 70.3 µM (top of the series) unless noted;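 also: cells stimulated with testosterone during compound exposure; potency is read from the fitted curve at half-maximal effect; nearly all actives have a fitted effect of over 55% in size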
[16] = target: Aryl hydrocarbon receptor (Homo sapiens) (UniProt P35869); assay: qHTS assay to identify small molecule that activate the aryl hydrocarbon receptor (AhR) signaling pathway (AID 743085); also: potency is read from the fitted curve at half-maximal effect; nearly all actives have a fitted effect of over 15% in size
UniProt P35869, sequence (P35869 whole entry, looked up): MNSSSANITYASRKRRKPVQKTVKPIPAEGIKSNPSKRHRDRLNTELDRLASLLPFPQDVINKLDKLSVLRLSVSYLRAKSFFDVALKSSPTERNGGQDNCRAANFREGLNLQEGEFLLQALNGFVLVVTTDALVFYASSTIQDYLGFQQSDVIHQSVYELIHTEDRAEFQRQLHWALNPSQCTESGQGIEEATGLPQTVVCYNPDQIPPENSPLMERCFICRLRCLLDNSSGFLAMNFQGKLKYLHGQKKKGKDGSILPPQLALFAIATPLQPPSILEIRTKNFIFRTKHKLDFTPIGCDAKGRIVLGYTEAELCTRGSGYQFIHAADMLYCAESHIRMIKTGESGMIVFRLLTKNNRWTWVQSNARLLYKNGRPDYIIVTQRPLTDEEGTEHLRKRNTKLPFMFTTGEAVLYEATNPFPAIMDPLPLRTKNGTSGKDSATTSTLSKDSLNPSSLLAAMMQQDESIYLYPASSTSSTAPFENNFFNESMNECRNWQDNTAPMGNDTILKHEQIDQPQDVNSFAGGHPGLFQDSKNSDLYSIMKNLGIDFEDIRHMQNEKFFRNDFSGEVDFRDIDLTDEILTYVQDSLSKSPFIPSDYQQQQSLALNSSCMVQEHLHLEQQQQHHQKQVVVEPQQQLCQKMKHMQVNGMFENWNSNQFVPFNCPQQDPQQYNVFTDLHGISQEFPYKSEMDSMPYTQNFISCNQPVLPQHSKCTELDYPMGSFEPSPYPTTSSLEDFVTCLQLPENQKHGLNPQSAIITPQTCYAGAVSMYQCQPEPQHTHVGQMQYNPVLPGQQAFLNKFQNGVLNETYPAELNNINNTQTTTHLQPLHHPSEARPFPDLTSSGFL
Summary of the method: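 HepG2 cells stably carrying a 20-DRE firefly luciferase reporter (HG2L7.5c1) treated with compound for 24 hr at 37C. Luciferase read by ONE-Glo luminescence, with CellTiter-Fluor viability read first.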

[17] = qHTS assay to identify small molecule that activate the aryl hydrocarbon receptor (AhR) signaling pathway - cell viability counter screen (AID 743086); also: potency is read from the fitted curve at half-maximal effect; nearly all actives have a fitted effect of over 45% in size
Summary of the method: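 Cytotoxicity counter screen: CellTiter-Fluor signal (30 min, 37 C) in 4000 HepG2 cells/well carrying the DRE-luciferase reporter, following 24 h compound exposure at 37 C.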

[18] = target: Peroxisome proliferator-activated receptor gamma (Homo sapiens) (UniProt P37231); assay: qHTS assay to identify small molecule agonists of the peroxisome proliferator-activated receptor gamma (PPARg) signaling pathway (AID 743094; active = well fitted activation curve with a large enough effect in the signal ratio in the repeat runs, not every such curve was filed as active; inconclusive = weak or mixed curves, or effect the other way; inactive = no such curve, though single readings can be large or run the other way; the % refers to the signal ratio; also: potency is read from the fitted curve at half-maximal effect); conditions: HEK293H PPARg-UAS-bla, beta-lactamase FRET ratio, 17 h; activation: at 57 µM (top of the series) unless noted
UniProt P37231, sequence (P37231 whole entry, looked up): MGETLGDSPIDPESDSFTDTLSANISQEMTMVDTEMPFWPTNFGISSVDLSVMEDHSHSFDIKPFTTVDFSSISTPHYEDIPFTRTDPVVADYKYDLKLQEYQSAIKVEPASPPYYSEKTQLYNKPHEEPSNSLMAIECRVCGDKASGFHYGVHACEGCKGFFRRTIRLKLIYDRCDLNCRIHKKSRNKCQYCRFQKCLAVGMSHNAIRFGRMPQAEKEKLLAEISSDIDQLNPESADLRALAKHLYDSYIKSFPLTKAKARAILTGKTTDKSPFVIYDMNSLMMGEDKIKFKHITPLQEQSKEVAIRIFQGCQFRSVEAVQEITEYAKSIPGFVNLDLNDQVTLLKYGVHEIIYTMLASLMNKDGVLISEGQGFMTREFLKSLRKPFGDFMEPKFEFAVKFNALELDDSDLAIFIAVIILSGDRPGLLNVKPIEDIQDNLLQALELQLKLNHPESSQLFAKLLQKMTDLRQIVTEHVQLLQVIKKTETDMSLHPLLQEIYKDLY
Summary of the method: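 Agonism was assessed in a beta-lactamase reporter system, HEK293H cells with a stably integrated UAS-bla construct under PPARg control; the 17 h treatment at 37C preceded a 1 h room-temperature FRET substrate read.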

[19] = qHTS assay to identify small molecule antagonists of the estrogen related receptor (ERR) signaling pathway - cell viability counter screen (AID 1224818); also: potency is read from the fitted curve at half-maximal effect
Summary of the method: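 Viability of ERR cells, CellTiter-Fluor fluorescence; 17.5 h compound exposure at 37 C, DMSO vehicle; 30 min reagent incubation at 37 C/5% CO2.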

[20] = qHTS assay to identify small molecule antagonists of the estrogen related receptor signaling pathway with the pleiotropic PPARgamma coactivator (PGC) cell viability counter screen (AID 1224822; also: potency is read from the fitted curve at half-maximal effect)
Summary of the method: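 17.5 h compound treatment of PGC/ERR cells at 37 C; readout CellTiter-Fluor fluorescence; run alongside the PGC/ERR antagonist screen to flag cytotoxic compounds.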

[21] = qHTS assay to identify small molecule agonists of the estrogen related receptor signaling pathway with the pleiotropic PPARgamma coactivator (PGC) (AID 1224823); also: potency is read from the fitted curve at half-maximal effect
Summary of the method: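 Compounds dissolved in DMSO are added by pin tool to PGC/ERR cells that have settled for 6 h, and incubation continues 18 h at 37 C. Reporter output is measured as One-Glo luminescence.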

[22] = target: Nuclear receptor subfamily 1 group I member 2 (Homo sapiens) (UniProt O75469); assay: Human pregnane X receptor (PXR) activation by small molecules, qHTS assay (AID 1346985); also: potency is read from the fitted curve at half-maximal effect; nearly all actives have a fitted effect of over 40% in size
Summary of the method: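 DPX-2 cells (HepG2 co-transfected with a PXR response element and a CYP3A4-promoter luciferase construct) were seeded at 2,000 per well, rested 5 hr at 37C, then exposed to DMSO-dissolved compounds for 24 hr. Activation was read as luciferase luminescence.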
Tags tell the direction and shape of the fitted curve or compound fluorescence and quenching.

SMILES: COc1cc(NS(C)(=O)=O)ccc1Nc1c2ccccc2nc2ccccc12
- Potency [1]: active: 1.68 µM
- Potency [2]: inconclusive: 5.31 µM [activator, single point]
- Potency [3]: inconclusive: 33.5 µM [falling, partial curve, poor fit]
- Potency [4]: active: 11.2 µM [fluorescent]
- Potency [5]: active: 12.6 µM
- Potency [6]: inconclusive: 10.7 µM [falling, single point]
- Potency [7]: inconclusive: 19 µM [partial curve]
- Potency [8]: inconclusive: 19 µM [cytotoxic, partial curve]
- Potency [9]: inconclusive: 4.25 µM [cytotoxic, full curve]
- Potency [10]: active: 0.601 µM
- Potency [11]: inconclusive: 0.0008 µM [inhibitor]
- Potency [12]: active: 0.188 µM
- activation [13]: inconclusive: -8.02% [phenotype inactive]
- Potency [14]: inconclusive: 26.6 µM [cytotoxic]
- Potency [15]: inconclusive: 23.7 µM [cytotoxic, partial curve]
- Potency [16]: inconclusive: 0.841 µM [activator, full curve, poor fit]
- Potency [17]: active: 13.3 µM
- Potency [18]: active: 21.3 µM
- Potency [19]: inconclusive: 18.8 µM [cytotoxic]
- Potency [20]: active: 18.1 µM
- Potency [21]: inconclusive: 9.44 µM [activator]
- Potency [22]: inconclusive: 5.62 µM [activator, partial curve, poor fit]
